Data taken from patent US20070104696A1, “Use of cell lines to produce active therapeutic proteins” (Multicell Technologies, Inc., priority 2003, published 2007).

The molecules below were run on Fa2N-4 Cells and Primary Human Hepatocytes (assay: not given). Conditions: not given.

Compound	Cellular Response (Same / Different) in Fa2N-4 cells versus primary human hepatocytes	Toxicity class (Non-toxic Compound / Toxic Compound)
c1ccc2c(c1)cc1ccc3cccc4ccc2c1c34 [Benzo[a]pyrene]	Different	Toxic Compound
NC(=O)N1c2ccccc2C=Cc2ccccc21 [Carbamazepine]	Same	Non-toxic Compound
CC1(COc2ccc(CC3SC(=O)NC3=O)cc2)CCCCC1 (stereo not drawn) [Ciglitazone]	Same	Non-toxic Compound
O=C1Nc2ccc(Cl)cc2[C@@](C#CC2CC2)(C(F)(F)F)O1 [Efavirenz]	Same	Toxic Compound
NC(=O)OCC(COC(N)=O)c1ccccc1 [Felbamate]	Same	Non-toxic Compound
CC1=CC(=O)c2ccccc2C1=O [Menadione]	Different	Toxic Compound
CN(Cc1cnc2nc(N)nc(N)c2n1)c1ccc(C(=O)N[C@@H](CCC(=O)O)C(=O)O)cc1 [Methotrexate]	Same	Toxic Compound
CCC1(c2ccccc2)C(=O)NC(=O)NC1=O [Phenobarbital, 5-ethyl-5-phenyl-2,4,6-trioxohexahydropyrimidine]	Same	–
O=C1NC(=O)C(c2ccccc2)(c2ccccc2)N1 [Phenytoin]	Same	Non-toxic Compound
CCCN(CCC)S(=O)(=O)c1ccc(C(=O)O)cc1 [Probenicid]	Same	–
CO[C@H]1/C=C/O[C@@]2(C)Oc3c(C)c(O)c4c(O)c(c(/C=N/N5CCN(C)CC5)c(O)c4c3C2=O)NC(=O)/C(C)=C\C=C\[C@H](C)[C@H](O)[C@@H](C)[C@@H](O)[C@@H](C)[C@H](OC(C)=O)[C@@H]1C [Rifampin, 3-[4-methylpiperazinyliminomethyl]rifamycin SV]	Same	Non-toxic Compound
Cc1c(C)c2c(c(C)c1O)CCC(C)(COc1ccc(CC3SC(=O)NC3=O)cc1)O2 (stereo not drawn) [Troglitazone]	Different	Toxic Compound

Same assay, conditions: human

Compound	Cellular Response (Same / Different) in Fa2N-4 cells versus primary human hepatocytes
Cc1ccc2cc3c(ccc4ccccc43)c3c2c1CC3 [3-Methylcholanthrene]	Same

The molecules below were run on Fa2N-4 Cells and Primary Human Hepatocytes (assay: Comparison of toxicity in Fa2N-4 cells and primary human hepatocytes). Conditions: not given.

Compound	Cellular Response (Same / Different) in Fa2N-4 cells versus primary human hepatocytes
C=C(C)[C@H]1Cc2c(ccc3c2O[C@@H]2COc4cc(OC)c(OC)cc4[C@@H]2C3=O)O1 [Rotenone]	Same
